Experimental data reported in US10273244B2, “Substituted hexahydropyrrolo[3,4-b]pyrroles and hexahydrocyclopenta[c]pyrroles as dopamine receptor modulators” (INDIVIOR UK LIMITED, priority 2015, dated 2019).

Tests used:
[1] = target: human dopamine receptor type 2, long variant (hD2L), CHO-Gα16-hD2L cells (Homo sapiens (Human), UniProt P14416); details: functional pKi, FLIPR Ca2+, antagonism of dopamine EC80
[2] = target: human dopamine type 3 receptor (CHO-hD3 membranes) (Homo sapiens (Human), UniProt P35462); details: displacement of 0.3 nM [3H]-Spiperone
Chain of UniProt P35462 (P35462 whole entry): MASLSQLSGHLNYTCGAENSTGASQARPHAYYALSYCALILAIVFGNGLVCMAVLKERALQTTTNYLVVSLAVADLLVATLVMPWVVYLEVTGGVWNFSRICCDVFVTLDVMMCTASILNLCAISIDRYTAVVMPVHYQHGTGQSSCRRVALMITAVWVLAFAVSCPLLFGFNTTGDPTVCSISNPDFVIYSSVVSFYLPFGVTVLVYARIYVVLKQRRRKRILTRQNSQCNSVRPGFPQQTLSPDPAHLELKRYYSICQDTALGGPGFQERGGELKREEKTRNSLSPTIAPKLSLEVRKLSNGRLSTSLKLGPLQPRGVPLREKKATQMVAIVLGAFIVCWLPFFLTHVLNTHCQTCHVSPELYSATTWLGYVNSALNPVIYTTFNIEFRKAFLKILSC

Chain of UniProt P14416 (P14416 whole entry): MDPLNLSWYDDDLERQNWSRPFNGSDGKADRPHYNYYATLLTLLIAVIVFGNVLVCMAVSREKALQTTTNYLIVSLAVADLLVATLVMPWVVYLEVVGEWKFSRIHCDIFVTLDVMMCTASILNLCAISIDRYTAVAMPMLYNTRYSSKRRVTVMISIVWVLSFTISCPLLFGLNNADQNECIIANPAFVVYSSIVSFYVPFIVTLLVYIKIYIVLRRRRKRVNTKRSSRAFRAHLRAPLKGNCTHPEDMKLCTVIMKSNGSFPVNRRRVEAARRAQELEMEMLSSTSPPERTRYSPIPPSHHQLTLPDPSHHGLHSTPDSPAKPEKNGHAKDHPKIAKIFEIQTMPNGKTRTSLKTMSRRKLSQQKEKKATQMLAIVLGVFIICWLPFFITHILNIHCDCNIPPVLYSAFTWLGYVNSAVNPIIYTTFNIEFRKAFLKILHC

Row | D2 fpKi [1] | D3 pKi [2] | Compound
1 | 7.01 | 8.24 | Cc1ncoc1-c1nnc(SCCCN2C[C@H]3CCCN(c4ccc(C(F)(F)F)cc4)[C@H]3C2)n1C [Example 233, 3-({3-[(4aR,7aR or 4aS,7aS)-1-[4-(trifluoromethyl)phenyl]-octahydro-1H-pyrrolo[3,4-b]pyridin-6-yl]propyl}sulfanyl)-4-methyl-5-(4-methyl-1,3-oxazol-5-yl)-4H-1,2,4-triazole]
2 | 6.16 | 7.95 | Cc1ncoc1-c1nnc(SCCCN2CC3CCCN(c4cccc(C#N)c4)C3C2)n1C.Cl.Cl (stereo not drawn) [Example 235, 3-[6-(3-{[4-methyl-5-(4-methyl-1,3-oxazol-5-yl)-4H-1,2,4-triazol-3-yl]sulfanyl}propyl)-octahydro-1H-pyrrolo[3,4-b]pyridin-1-yl]benzonitrile dihydrochloride]
3 | 6.01 | 7.45 | Cc1ncoc1-c1nnc(SCCCN2CC3OCCN(c4ccc(C(F)(F)F)cc4)C3C2)n1C (stereo not drawn) [Example 236, 4-methyl-3-(4-methyl-1,3-oxazol-5-yl)-5-[(3-{4-[4-(trifluoromethyl)-phenyl]-octahydropyrrolo[3,4-b]morpholin-6-yl}propyl)sulfanyl]-4H-1,2,4-triazole]
4 | 6.37 | 7.77 | Cc1ncoc1-c1nnc(SCCCN2C[C@H]3OCCN(c4ccc(C(F)(F)F)cc4)[C@H]3C2)n1C [Example 238, 3-({3-[(4aS,7aR or 4aR,7aS)-4-[4-(trifluoromethyl)phenyl]-octahydropyrrolo[3,4-b]morpholin-6-yl]propyl}sulfanyl)-4-methyl-5-(4-methyl-1,3-oxazol-5-yl)-4H-1,2,4-triazole]
5 | 6.46 | 7.13 | Cc1ncoc1-c1nnc(SCCCCN2CCC3CCN(c4ccc(C(F)(F)F)cc4)C3C2)n1C (stereo not drawn) [Example 240, 4-methyl-3-(4-methyl-1,3-oxazol-5-yl)-5-[(4-{1-[4-(trifluoromethyl)phenyl]-octahydro-1H-pyrrolo[2,3-c]pyridin-6-yl}butyl)sulfanyl]-4H-1,2,4-triazole]
6 | 6.45 | 7.22 | Cc1ncoc1-c1nnc(SCCCN2CC[C@@H]3CCN(c4ccc(C(F)(F)F)cc4)[C@@H]3C2)n1C.Cl.Cl [Example 242, 3-({3-[(3aR,7aS or 3aS,7aR)-1-[4-(trifluoromethyl)phenyl]-octahydro-1H-pyrrolo[2,3-c]pyridin-6-yl]propyl}sulfanyl)-4-methyl-5-(4-methyl-1,3-oxazol-5-yl)-4H-1,2,4-triazole dihydrochloride]
